Data as given in PubChem BioAssay (NCATS).
The shares of active, inactive and inconclusive entries below differ from those in the screen. For part of these data: No potency is given beside an inconclusive call; the fits are too rough. Activity calls are given as the source filed them. Calls follow the shape of the dose curve; as a rule, active = well fitted curve in the direction sought with a large enough effect; inconclusive = small, poorly fitted or top-dose-only effect, or another doubt; inactive = no such curve, though single readings can be large; an effect the other way counts as inactive or inconclusive.

Key:
Furin (Homo sapiens) = Furin (Homo sapiens) (UniProt P09958); experiment: Furin counterscreen qHTS for Zika virus inhibitors (AID 1347149);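 also: purified recombinant full-length human furin enzyme at 5 nM; fluorescence gain from furin cutting a BOC-RVRR-AMC peptide substrate over 15 min; top concentration of the series differs between compounds; nearly all actives have a fitted effect of over 70% in size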
How it was run: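 Counterscreen measures cleavage of 2 microM BOC-RVRR-AMC, below its ~15 microM Km, by 5 nM full-length human furin at pH 7.0 after a 15-min compound preincubation. Inhibition derives from the 15-min fluorescence increase at 37C.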

[1] = Tertiary RLuc qRT-PCR qHTS assay for Zika virus inhibitors (AID 1347169); conditions: infected Vero cells, reporter luminescence, 48-72 h; series mostly up to 45.9 µM; also: potency is read from the fitted curve at half-maximal effect; nearly all actives have a fitted effect of over 55% in size
How it was run: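 Orthogonal cell-based readout: luminescence measured 1-1.5 hrs after adding live-cell Renilla substrate to Vero cells that had been infected with ZIKV-RLuc (MOI 1-2) post-compound, incubated 48-72 hrs at 37 degrees C.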

[2] = test system: Zika virus NS2B-NS3 protease; experiment: Primary screen GU AMC qHTS for Zika virus inhibitors (AID 1347154); also: potency is read from the fitted curve at half-maximal effect; nearly all actives have a fitted effect of over 70% in size
How it was run: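 Unlinked Zika NS2B hydrophilic domain–NS3 protease complex at 25 nM in 10 mM Tris-HCl pH 8.0, 0.01% Tween 20, with an AMC peptide substrate. Fluorescence change (340/450 nm) over 15 min at room temperature, normalized to controls, fitted to 4-parameter Hill.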
Tags tell the direction and shape of the fitted curve.

Sequence of UniProt P09958 (P09958 whole entry, looked up): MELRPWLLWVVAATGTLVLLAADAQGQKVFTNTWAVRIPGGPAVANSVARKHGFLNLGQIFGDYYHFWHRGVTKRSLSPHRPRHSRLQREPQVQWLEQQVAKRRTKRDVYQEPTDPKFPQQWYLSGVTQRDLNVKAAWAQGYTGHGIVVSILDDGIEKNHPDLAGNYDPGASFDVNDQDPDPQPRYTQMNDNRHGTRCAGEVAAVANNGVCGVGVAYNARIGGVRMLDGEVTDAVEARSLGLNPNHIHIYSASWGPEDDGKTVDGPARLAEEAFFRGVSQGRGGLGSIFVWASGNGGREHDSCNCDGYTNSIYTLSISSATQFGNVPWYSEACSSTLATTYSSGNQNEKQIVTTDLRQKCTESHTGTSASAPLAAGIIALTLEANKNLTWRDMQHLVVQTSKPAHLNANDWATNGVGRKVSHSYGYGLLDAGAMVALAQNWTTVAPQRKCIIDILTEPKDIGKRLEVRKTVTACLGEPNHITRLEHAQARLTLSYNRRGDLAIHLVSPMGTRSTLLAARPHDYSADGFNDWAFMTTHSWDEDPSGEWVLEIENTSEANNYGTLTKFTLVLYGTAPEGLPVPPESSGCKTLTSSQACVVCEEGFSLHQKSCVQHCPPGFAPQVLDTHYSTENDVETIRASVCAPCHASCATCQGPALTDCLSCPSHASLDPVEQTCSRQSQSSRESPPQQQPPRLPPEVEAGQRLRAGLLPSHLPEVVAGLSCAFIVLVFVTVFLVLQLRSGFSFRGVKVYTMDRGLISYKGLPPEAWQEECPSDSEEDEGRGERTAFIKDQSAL

Compound | Potency (Furin (Homo sapiens)) | Potency [1] | Potency [2]
C[C@H]1O[C@@H](O[C@H]2[C@@H](O)C[C@H](O[C@H]3[C@@H](O)C[C@H](O[C@H]4CC[C@]5(C)C6CC[C@]7(C)[C@@H](C8=CC(=O)OC8)CC[C@]7(O)C6CC[C@@H]5C4)O[C@@H]3C)O[C@@H]2C)C[C@H](O)[C@@H]1O (stereo partly drawn) | inactive | active: 0.147 µM | 
CCCOC(=O)c1cc2c(cn1)[nH]c1ccccc12 |  |  | inconclusive [inhibitor, partial curve, poor fit]
